In patent publication US20230144436A1, “MUSCLE TARGETING COMPLEXES AND USES THEREOF FOR TREATING MYOTONIC DYSTROPHY” (Dyne Therapeutics, Inc., priority 2020, published 2023):

B1: 3-M9 (antibody, V domains shown)
VH: EVQLQQSGAELVRPGASVKLSCTASDFNIKDDYIHWVKQRPEQGLEWIGRIDPANGNTKYAPKFQDKATITADTSSNTAYLQLSSLTSEDTAVYYCALGYTYWGQGTTLTVSS
VL: DVVMTQTPLTLSVTIGQPASISCKSSQSLLHSYGKTYLNWLLQRPGQSPKLLIYLVSKLESGVPDRFSGSGSGTDFTLKISRVEAEDLGVYYCLQTTHFPQTFGGGTKLEIK
B2: 3-M09 (antibody, V domains shown)
VH: EVQLQQSGAELVRPGASVKLSCTASDFNIKDDYIHWVKQRPEQGLEWIGRIDPANGNTKYAPKFQDKATITADTSSNTAYLQLSSLTSEDTAVYYCALGYTYWGQGTTLTVSS
VL: DVVMTQTPLTLSVTIGQPASISCKSSQSLLHSYGKTYLNWLLQRPGQSPKLLIYLVSKLESGVPDRFSGSGSGTDFTLKISRVEAEDLGVYYCLQTTHFPQTFGGGTKLEIK

Experiments:
DMPK [1] = experiment: DMPK knockdown by anti-TfR1 antibody-oligonucleotide conjugates in NHP myotubes; format: cell-based, non-human primate; conditions: conjugate with control DMPK-ASO, 72 hours, concentration not stated (0.5, 5, 50 nM tested)
Protocol: (§1) The purified complexes were then tested for cellular internalization and inhibition of the target gene, DMPK. Non-human primate (NHP) or DM1 (donated by DM1 patients) cells were grown in 96-well plates and differentiated into myotubes for 7 days. Cells were then treated with escalating concentrations (0.5 nM, 5 nM, 50 nM) of each complex for 72 hours. Cells were harvested, RNA was isolated, and reverse transcription was performed to generate cDNA. qPCR was performed using TaqMan kits specific for Ppib (control) and DMPK on the QuantStudio 7. The relative amounts of remaining DMPK transcript in treated vs non-treated cells was were calculated and the results are shown in Table 14 and FIG. 20.
as §1, with “of” for “of the target gene,”, “in” for “in Table 14 and”, “23.” for “20.”

DMPK [2] = experiment: DMPK knockdown by anti-TfR1 antibody-oligonucleotide conjugates in DM1 patient myotubes; format: cell-based, human
Protocol: as §1
as §1, with “of” for “of the target gene,”, “in” for “in Table 14 and”, “23.” for “20.”

hTfR1 = hTfR1 (Homo sapiens, UniProt P02786); experiment: Binding kinetics of anti-TfR1 antibodies on Carterra LSA, hTfR1; conditions: Carterra LSA at 25 C
hTfR1, sequence (P02786 whole entry): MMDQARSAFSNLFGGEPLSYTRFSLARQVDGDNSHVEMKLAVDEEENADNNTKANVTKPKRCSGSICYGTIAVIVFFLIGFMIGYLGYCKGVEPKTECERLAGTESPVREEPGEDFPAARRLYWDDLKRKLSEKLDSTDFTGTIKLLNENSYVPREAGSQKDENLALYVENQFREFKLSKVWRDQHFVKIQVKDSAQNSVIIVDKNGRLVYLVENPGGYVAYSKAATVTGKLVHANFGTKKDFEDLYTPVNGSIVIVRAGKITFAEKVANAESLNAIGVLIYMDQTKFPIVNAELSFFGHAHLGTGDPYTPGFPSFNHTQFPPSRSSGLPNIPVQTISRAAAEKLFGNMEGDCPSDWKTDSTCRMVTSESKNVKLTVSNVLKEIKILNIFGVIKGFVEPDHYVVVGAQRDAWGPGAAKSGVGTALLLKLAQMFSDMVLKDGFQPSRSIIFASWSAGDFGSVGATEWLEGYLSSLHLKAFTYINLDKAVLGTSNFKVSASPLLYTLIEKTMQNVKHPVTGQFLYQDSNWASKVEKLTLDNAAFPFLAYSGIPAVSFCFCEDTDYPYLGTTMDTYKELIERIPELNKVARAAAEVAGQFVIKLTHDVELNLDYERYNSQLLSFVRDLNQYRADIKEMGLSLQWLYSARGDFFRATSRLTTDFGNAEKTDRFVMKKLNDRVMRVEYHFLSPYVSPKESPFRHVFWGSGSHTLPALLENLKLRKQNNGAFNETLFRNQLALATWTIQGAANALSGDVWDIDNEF
Protocol: Selected anti-TfR1 antibodies were tested for their binding affinity to human TfR1 for measurement of Ka (association rate constant), Kd (dissociation rate constant), and KD (affinity). […] The binding experiment was performed on Carterra LSA at 25 C. An anti-mouse IgG and anti-human IgG antibody “lawn” was prepared on a HC30M chip by amine coupling. 59 IgGs (58 mouse mAbs and 1 human mAb) were captured on the chip. Dilution series of hTfR1, cyTfR1, and hTfR2 were injected to the chip for binding (starting from 1000 nM, 1:3 dilution, 8 concentrations).
Binding data were referenced by subtracting the responses from a buffer analyte injection and globally fitting to a 1:1 Langmuir binding model for estimate of Ka (association rate constant), Kd (dissociation rate constant), and KD (affinity) using the Carterra™ Kinetics software. 5-6 concentrations were used for curve fitting.

| Molecule | % knockdown of DMPK in NHP cells using Antibody-DMPK ASO conjugate (DMPK [1]) | % knockdown of DMPK in cells from human DM1 patients using Antibody-DMPK ASO conjugate (DMPK [2]; DM1 patient myotubes, conjugate with control DMPK-ASO, 72 hours, concentration not stated (0.5, 5, 50 nM tested)) | activity in delivering a payload (DMPK ASO) and achieving DMPK knockdown compared to the control antibody 15G11 (DMPK [2]; conjugates with control DMPK-ASO, in either cyno cells or human DM1 patient cells) | dissociation rate constant (koff) (hTfR1) |
| --- | --- | --- | --- | --- |
| B1 | 52% | 39% | superior activity |  |
| B2 |  |  |  | 382 µM |
